# The supplement of paper PMC4604168 (melanoma cell lines)
# The list shows a part of the results. Single values are uncertain, as repeats are few or missing.
# System: A101D
# Test: cell count relative to DMSO control; melanoma cells; higher = more viable cells
# Settings: library dose: standard library concentration; 72 h
# 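Also: cells treated in 1,536-well plates, then fixed and DAPI-stained, with nuclei counted from automated high-throughput microscope images.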
row,SMILES,cell count [%]
1,"COc1cc([C@@H]2c3cc4c(cc3[C@@H](O[C@@H]3O[C@@H]5CO[C@@H](C)O[C@H]5[C@H](O)[C@H]3O)[C@H]3COC(=O)[C@H]23)OCO4)cc(OC)c1O [etoposide] + CCCS(=O)(=O)Nc1ccc(F)c(C(=O)c2c[nH]c3ncc(Cl)cc23)c1F [PLX4720] (first compound 0.1 µM, partner dose 0.4 µM)",81
2,"CCN(CC)CCNC(=O)c1c(C)[nH]c(/C=C2\C(=O)Nc3ccc(F)cc32)c1C [sunitinib] + CN(c1ncccc1CNc1nc(Nc2ccc3c(c2)CC(=O)N3)ncc1C(F)(F)F)S(C)(=O)=O [PF562271] (first compound 2 µM, partner dose 0.4 µM)",55.7
3,"Cn1cnc2c(F)c(Nc3ccc(Br)cc3Cl)c(C(=O)NOCCO)cc21 [selumetinib] + CN1CCN(c2ccc3nc(-c4c(N)c5c(F)cccc5[nH]c4=O)[nH]c3c2)CC1 [Dovitinib] (first compound 0.075 µM, partner dose 0.5 µM)",67
4,"C[C@]1(O)C[C@@H](c2nc(-c3ccc4ccc(-c5ccccc5)nc4c3)c3c(N)nccn32)C1 + CO[C@@H]1[C@H](N(C)C(=O)c2ccccc2)C[C@H]2O[C@]1(C)n1c3ccccc3c3c4c(c5c6ccccc6n2c5c31)C(=O)NC4 [Midostaurin] (first compound 2 µM, partner dose 0.4 µM)",77
5,"Cn1cnc2c(F)c(Nc3ccc(Br)cc3Cl)c(C(=O)NOCCO)cc21 [selumetinib] + NC(=O)c1ccc(N(C(N)=O)c2c(F)cccc2F)nc1-c1ccc(F)cc1F [VX702] (first compound 0.075 µM, partner dose 2 µM)",83.2
6,"CCN(CC)CCNC(=O)c1c(C)[nH]c(/C=C2\C(=O)Nc3ccc(F)cc32)c1C [sunitinib] + Cn1nnc2c(C(N)=O)ncn2c1=O [temozolomide] (first compound 2 µM, partner dose 10 µM)",62.5
7,"CCN(CC)CCNC(=O)c1c(C)[nH]c(/C=C2\C(=O)Nc3ccc(F)cc32)c1C [sunitinib] + COc1cc(Nc2ncc(F)c(Nc3ccc4c(n3)NC(=O)C(C)(C)O4)n2)cc(OC)c1OC [Tamatinib] (first compound 2 µM, partner dose 2 µM)",19.1
8,"CCN(CC)CCNC(=O)c1c(C)[nH]c(/C=C2\C(=O)Nc3ccc(F)cc32)c1C [sunitinib] + CC(C)C[C@H](NC(=O)[C@H](Cc1ccccc1)NC(=O)c1cnccn1)B(O)O [Bortezomib] (first compound 2 µM, partner dose 0.005 µM)",9.18
9,"CCN(CC)CCNC(=O)c1c(C)[nH]c(/C=C2\C(=O)Nc3ccc(F)cc32)c1C [sunitinib] + C[C@@H]1CCN(C(=O)CC#N)C[C@@H]1N(C)c1ncnc2[nH]ccc12 [CP690550] (first compound 2 µM, partner dose 5 µM)",81.1
10,"Cn1cnc2c(F)c(Nc3ccc(Br)cc3Cl)c(C(=O)NOCCO)cc21 [selumetinib] + C[C@]1(O)C[C@@H](c2nc(-c3ccc4ccc(-c5ccccc5)nc4c3)c3c(N)nccn32)C1 [OSI906] (first compound 0.075 µM, partner dose 2 µM)",74.8
11,"Cn1cnc2c(F)c(Nc3ccc(Br)cc3Cl)c(C(=O)NOCCO)cc21 [selumetinib] + C[C@@H](Oc1cc(-c2cnn(C3CCNCC3)c2)cnc1N)c1c(Cl)ccc(F)c1Cl [Crizotinib] (first compound 0.075 µM, partner dose 1 µM)",76.5
12,"COc1cc([C@@H]2c3cc4c(cc3[C@@H](O[C@@H]3O[C@@H]5CO[C@@H](C)O[C@H]5[C@H](O)[C@H]3O)[C@H]3COC(=O)[C@H]23)OCO4)cc(OC)c1O [etoposide] + O=C(O)c1ccc2c(c1)nc(Nc1cccc(Cl)c1)c1ccncc12 [CX4945] (first compound 0.1 µM, partner dose 2 µM)",93.9
13,"Cn1cnc2c(F)c(Nc3ccc(Br)cc3Cl)c(C(=O)NOCCO)cc21 [selumetinib] + O=C(O)[C@@H]1[O][Sb](=[O])([O][Sb]2(=[O])[O][C@H]([C@H](O)CO)[C@H](O)[C@H](C(=O)O)[O]2)[O][C@H]([C@H](O)CO)[C@@H]1O [stibogluconate] (first compound 0.075 µM, partner dose 10 µM)",65.6
14,"COc1cc([C@@H]2c3cc4c(cc3[C@@H](O[C@@H]3O[C@@H]5CO[C@@H](C)O[C@H]5[C@H](O)[C@H]3O)[C@H]3COC(=O)[C@H]23)OCO4)cc(OC)c1O [etoposide] + C[C@]1(c2nc3c(C(N)=O)cccc3[nH]2)CCCN1 [Veliparib] (first compound 0.1 µM, partner dose 7 µM)",83.2
15,"C[C@]1(O)C[C@@H](c2nc(-c3ccc4ccc(-c5ccccc5)nc4c3)c3c(N)nccn32)C1 + CC1(C)NC(=O)N(c2ccc([N+](=O)[O-])c(C(F)(F)F)c2)C1=O [nilutamide] (first compound 2 µM, partner dose 5 µM)",98.7
16,"Cn1cnc2c(F)c(Nc3ccc(Br)cc3Cl)c(C(=O)NOCCO)cc21 [selumetinib] + O=C(CCCCCCC(=O)Nc1ccccc1)NO [vorinostat] (first compound 0.075 µM, partner dose 0.4 µM)",67
17,"C[C@]1(O)C[C@@H](c2nc(-c3ccc4ccc(-c5ccccc5)nc4c3)c3c(N)nccn32)C1 + Clc1ccc(Nc2nnc(Cc3ccncc3)c3ccccc23)cc1 [vatalanib] (first compound 2 µM, partner dose 10 µM)",87.8
18,"CCN(CC)CCNC(=O)c1c(C)[nH]c(/C=C2\C(=O)Nc3ccc(F)cc32)c1C [sunitinib] + O=C(Nc1cccc(Cl)c1)Nc1ncc(CCNc2ncnc3ccsc23)s1 [SNS314] (first compound 2 µM, partner dose 0.004 µM)",67.3
19,"COc1cc([C@@H]2c3cc4c(cc3[C@@H](O[C@@H]3O[C@@H]5CO[C@@H](C)O[C@H]5[C@H](O)[C@H]3O)[C@H]3COC(=O)[C@H]23)OCO4)cc(OC)c1O [etoposide] + C[C@@H](N)c1ccc(C(=O)Nc2ccnc3[nH]ccc23)cc1 [RKI983] (first compound 0.1 µM, partner dose 2 µM)",62.1
20,"CCN(CC)CCNC(=O)c1c(C)[nH]c(/C=C2\C(=O)Nc3ccc(F)cc32)c1C [sunitinib] + C[C@]1(c2nc3c(C(N)=O)cccc3[nH]2)CCCN1 [Veliparib] (first compound 2 µM, partner dose 7 µM)",74
21,"C[C@]1(O)C[C@@H](c2nc(-c3ccc4ccc(-c5ccccc5)nc4c3)c3c(N)nccn32)C1 + COc1cc(Nc2ncc(F)c(Nc3ccc4c(n3)NC(=O)C(C)(C)O4)n2)cc(OC)c1OC [Tamatinib] (first compound 2 µM, partner dose 2 µM)",18
22,"Cn1cnc2c(F)c(Nc3ccc(Br)cc3Cl)c(C(=O)NOCCO)cc21 [selumetinib] + Cn1nnc2c(C(N)=O)ncn2c1=O [temozolomide] (first compound 0.075 µM, partner dose 10 µM)",66.9
23,"COc1cc([C@@H]2c3cc4c(cc3[C@@H](O[C@@H]3O[C@@H]5CO[C@@H](C)O[C@H]5[C@H](O)[C@H]3O)[C@H]3COC(=O)[C@H]23)OCO4)cc(OC)c1O [etoposide] + C[C@]1(O)C[C@@H](c2nc(-c3ccc4ccc(-c5ccccc5)nc4c3)c3c(N)nccn32)C1 [OSI906] (first compound 0.1 µM, partner dose 2 µM)",91.3
24,"CCN(CC)CCNC(=O)c1c(C)[nH]c(/C=C2\C(=O)Nc3ccc(F)cc32)c1C [sunitinib] + CN1CCN(c2ccc3nc(-c4c(N)c5c(F)cccc5[nH]c4=O)[nH]c3c2)CC1 [Dovitinib] (first compound 2 µM, partner dose 0.5 µM)",70.5
25,"C[C@]1(O)C[C@@H](c2nc(-c3ccc4ccc(-c5ccccc5)nc4c3)c3c(N)nccn32)C1 + Nc1ncn([C@H]2C[C@H](O)[C@@H](CO)O2)c(=O)n1 [decitabine] (first compound 2 µM, partner dose 0.5 µM)",64.3
26,"CCN(CC)CCNC(=O)c1c(C)[nH]c(/C=C2\C(=O)Nc3ccc(F)cc32)c1C [sunitinib] + OCc1c[nH]c2ccccc12 [Indole-3-carbinol] (first compound 2 µM, partner dose 4 µM)",48.8
27,"COc1cc([C@@H]2c3cc4c(cc3[C@@H](O[C@@H]3O[C@@H]5CO[C@@H](C)O[C@H]5[C@H](O)[C@H]3O)[C@H]3COC(=O)[C@H]23)OCO4)cc(OC)c1O [etoposide] + CN(c1ncccc1CNc1nc(Nc2ccc3c(c2)CC(=O)N3)ncc1C(F)(F)F)S(C)(=O)=O [PF562271] (first compound 0.1 µM, partner dose 0.4 µM)",84.4
28,"Cn1cnc2c(F)c(Nc3ccc(Br)cc3Cl)c(C(=O)NOCCO)cc21 [selumetinib] + Cc1ccc(NC(=O)c2cccc(N(C)C)c2)cc1NC(=O)c1ccc(O)cc1 [ZM336372] (first compound 0.075 µM, partner dose 10 µM)",63.2
29,"C[C@]1(O)C[C@@H](c2nc(-c3ccc4ccc(-c5ccccc5)nc4c3)c3c(N)nccn32)C1 + Nc1cccc2c1CN(C1CCC(=O)NC1=O)C2=O [lenalidomide] (first compound 2 µM, partner dose 5 µM)",95.9
